# Whole data set: some 33,000 sequences, median “E-score (-0.5 to 0.5)” near -0.041, cut for the highest 2% near 0.37. The list shows a part of the results.
# Target: T1, Ecm22 (UniProt Q05958)
# T1 sequence: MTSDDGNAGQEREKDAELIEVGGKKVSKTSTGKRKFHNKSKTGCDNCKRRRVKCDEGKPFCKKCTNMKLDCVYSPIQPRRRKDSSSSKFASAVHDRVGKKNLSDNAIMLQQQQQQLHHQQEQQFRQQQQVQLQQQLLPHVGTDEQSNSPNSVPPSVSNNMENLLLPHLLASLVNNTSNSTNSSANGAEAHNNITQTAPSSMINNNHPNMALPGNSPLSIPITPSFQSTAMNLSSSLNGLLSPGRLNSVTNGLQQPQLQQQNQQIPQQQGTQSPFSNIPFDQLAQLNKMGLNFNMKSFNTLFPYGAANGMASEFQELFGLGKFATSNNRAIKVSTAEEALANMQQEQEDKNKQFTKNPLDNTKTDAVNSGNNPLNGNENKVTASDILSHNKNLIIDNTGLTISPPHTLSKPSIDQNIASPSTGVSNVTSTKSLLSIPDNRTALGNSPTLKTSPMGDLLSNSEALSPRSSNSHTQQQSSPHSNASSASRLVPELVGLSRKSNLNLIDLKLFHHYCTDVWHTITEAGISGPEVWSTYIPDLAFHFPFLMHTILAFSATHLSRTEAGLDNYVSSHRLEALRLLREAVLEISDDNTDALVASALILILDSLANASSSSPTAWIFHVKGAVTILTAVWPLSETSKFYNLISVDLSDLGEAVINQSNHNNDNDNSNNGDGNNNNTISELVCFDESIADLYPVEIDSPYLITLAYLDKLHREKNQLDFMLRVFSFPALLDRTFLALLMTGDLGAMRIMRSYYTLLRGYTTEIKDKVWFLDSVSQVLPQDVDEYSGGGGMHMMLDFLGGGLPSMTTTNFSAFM
# Assay: PBM E-score (8-mer binding enrichment) (E-score (-0.5 to 0.5)); higher = stronger / more preferred TF binding; most listed sequences are background and not binding sites
# Settings: protein concentration: 200 nM; construct: GST-full length
# Procedure: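 Universal 'all 10-mer' protein binding microarrays (Agilent AMADID 015681) probed with GST-tagged S. cerevisiae TFs (full-length or DBD) made by in vitro transcription/translation (PURExpress), about 100-200 nM. Bound TF was detected with fluorescent anti-GST. Each ungapped 8-mer (which stands for itself and its reverse complement) is scored by the PBM enrichment score (E-score), a modified Wilcoxon-Mann-Whitney statistic from -0.5 to +0.5, computed with the Universal PBM Analysis Suite. Scale: above 0.35 generally sequence-specific binding.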
row,Sequence,PBM E-score
1,CAATTGGG,-0.184
2,AGGATTGA,-0.189
3,CTGGGCGC,-0.28
4,ACCCAATC,-0.136
5,AGAACCAA,-0.0644
6,CCCGCTCA,0.0492
7,ATGGCCGG,-0.208
8,AGAAGGAG,-0.261
9,GAGTGATA,0.174
10,AACGCCAA,0.0935
11,AAACTCAG,-0.216
12,CGCCCGAA,0.0388
13,CCACCATC,-0.281
14,ATTCCATA,0.0992
15,TGGGCTAA,-0.163
16,AGGAGCCC,-0.197
17,AAGTCGAC,-0.0411
18,AACGGTCG,0.292
19,CCTCGGCG,0.156
20,AAAACACA,-0.0145
21,AAAAAAAG,-0.171
22,CCTCAGTC,-0.146
23,CTTCAACA,-0.202
24,GATGAAAA,0.0642
25,AGGGCGCG,-0.0881

row,Sequence,PBM E-score
1,AGCAATTC,-0.0108
2,CTTCTTAA,0.00805
3,AAATGCTC,-0.0255
4,ACGGGGTG,0.136
5,AGATTGGG,-0.154
6,CCTTCACC,-0.31
7,TGAATTAA,0.099
8,CAACTATA,0.0314
9,ACCGTCCA,-0.105
10,AGGAATTC,-0.133
11,AAAACGCT,-0.043
12,CAACGGTG,0.046
13,ATGCAGCA,-0.0375
14,CACCGCGA,0.0513
15,ACGTCAAT,0.0195
16,AAAATTTC,-0.0329
17,GATCGCCC,0.0885
18,ACTAGGTC,0.0604
19,ATTACCCA,-0.16
20,AATGTTTA,-0.0608
21,CGATTTAC,0.166
22,TCTTATCA,0.0547
23,ACGAGCCG,0.389
24,CGACGGCC,0.19
25,ACAAGCTA,-0.0235

row,Sequence,PBM E-score
1,ATGCACGC,-0.0896
2,CGTACAAC,0.434
3,ACATTTCG,0.105
4,GTCCTGCA,-0.334
5,CCCCCCGA,-0.244
6,ATGGTCCG,0.178
7,CAAGAAAC,-0.178
8,ACATCAGT,-0.159
9,CGGTGTTA,0.0882
10,ATGCGGGC,-0.0483
11,ATGAGTAG,-0.0787
12,CGAGACAG,0.199
13,ACGTTGTC,-0.015
14,GAAAGTTA,0.0522
15,AATAAACT,-0.0489
16,GACCTATC,-0.0499
17,GCCCTAGA,-0.103
18,CATGAGCG,0.0595
19,AAGCACGC,-0.0404
20,TCCTACAA,0.0334
21,AGTCGCAG,-0.0565
22,ACCAGGCT,-0.198
23,GGTTGGAA,0.0236
24,TGCCCACA,-0.309
25,GGCCACTA,-0.248

row,Sequence,PBM E-score
1,CAACCCAA,-0.165
2,GCCCCGTA,0.26
3,ACTCGGAA,0.184
4,TTCAGCAA,-0.0214
5,ACAACCGC,0.111
6,TATCGGCA,-0.053
7,CCCCAATC,-0.247
8,ACCGCTCA,0.0795
9,GGGCCCAC,-0.0197
10,ATTTCGAC,0.0102
11,CGTCGCTC,0.33
12,AATTTGAT,-0.0969
13,CGGGAGTA,0.077
14,GCAACAGC,-0.242
15,GTCATGAC,0.0454
16,ACCAAATG,-0.136
17,CGAAACAA,0.25
18,ACCCTAGT,-0.292
19,AAGAGCGA,0.286
20,GAAACTCA,-0.0057
21,GCAATCCA,-0.177
22,CGGATAAG,0.0485
23,AATCTCGA,0.0888
24,CGTGGCCC,-0.0808
25,CGACTGCG,0.081

row,Sequence,PBM E-score
1,GGGGTGCA,-0.0228
2,ACCATATA,0.238
3,CAAACGGA,0.202
4,ACACTGCG,0.0708
5,CTACCTCC,0.0237
6,AAGGAGGG,-0.132
7,AAAGTGCA,-0.133
8,ACCCATAC,0.0198
9,ACTGCCCT,-0.185
10,AAAAAGGC,-0.14
11,GACTTGTA,-0.0504
12,TCCAGACA,-0.136
13,AGCCCAGG,-0.341
14,CCTCCTCA,-0.138
15,AACTGAGT,-0.138
16,AGACACGC,0.13
17,AATGGTAT,-0.174
18,GAGACGCC,0.0333
19,GTAACTCA,-0.059
20,ATCAAAGC,-0.0724
21,ACAGCTGT,-0.202
22,TAGCGAAA,0.191
23,TAGCTACA,-0.096
24,TCGGCCGA,0.0486
25,TCACCGGA,-0.0436

row,Sequence,PBM E-score
1,GGAGAAAC,0.0922
2,CAAGAGAC,-0.241
3,ATCGCTGA,0.169
4,CGCGGCGC,-0.0391
5,ACATAGAT,-0.159
6,CCCCTTTC,-0.167
7,CCCCACAC,-0.107
8,ATGTGATG,-0.192
9,ACGGCTAT,-0.0333
10,GGGCTCGA,-0.0942
11,AAAATTGG,-0.105
12,CCGTTGTC,0.202
13,GGTGGTTA,-0.0845
14,CAGTAGAC,-0.157
15,GAATTAAC,0.155
16,CTGGTTGC,0.0737
17,AACACAGA,-0.036
18,CACGGCGC,-0.191
19,AGCCACTG,0.101
20,CATCCTAC,-0.0755
21,GAATCTAA,0.00748
22,GCGATTTA,-4e-05
23,GATAGGGC,-0.335
24,AGCTGGCC,-0.155
25,AAAGGAAT,-0.0428

row,Sequence,PBM E-score
1,CCCCCGAA,-0.302
2,GCCGGAAA,-0.0143
3,TAGTCACA,-0.0449
4,CCCGTATC,0.327
5,CTAAGGAG,-0.0285
6,GAGCCTCA,-0.179
7,GGTTGCAC,-0.129
8,GAAGCTCC,-0.0255
9,CCCAAGCA,-0.164
10,CATACAGC,-0.185
11,GCTCCAGC,0.0148
12,AGTCGTAA,0.395
13,GCCACGGC,-0.167
14,GGGAGCAA,-0.0345
15,GGCACGGA,-0.17
16,CCTCTCTA,-0.267
17,CTCTTGTA,-0.199
18,GCGCGTGA,0.17
19,AAAACCAC,-0.0489
20,GGGTACAC,0.0704
21,ACACTAGG,-0.131
22,CTCCATAC,0.0437

# — the supplement of paper PMC3334620
